Reference: the RNAGym collection of RNA variant scans (doi:10.1073/pnas.2313332121)
Variants at the floor of the assay are shown more often than the library holds them.

B1: TPR 5TU (parent)
chain: GGAUCUUCUCGAUCUAACAAAAAAGACAAAUCUGCCACAAAGCUUGAGAGCAUCUUCGGAUGCAGAGGCGGCAGCCUUCGGUGGCGCGAUAGCGCCAACGUUCUCAACUAUGACACGCAAAACGCGUGCUCCGUUGAAUGGAGUUUAUCAUG

Variants of: B1
Assay: polymerase ribozyme fitness, log enrichment relative to wild type (log ratio); higher = more active; in vitro selection for triplet polymerase activity
Outline: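 For each subunit of a heterodimeric triplet polymerase ribozyme, a mutant library was built by PCR and transcribed, then taken through a single in vitro selection round in triplicate. Selection involved annealing to a biotinylated primer, the partner subunit and triplets, incubation frozen at −7 °C, gel excision of extended constructs, capture on streptavidin beads and RT-PCR. Genotypes were retained after Illumina sequencing of inputs and outputs only with ≥10 input reads and ≥1 read in each output. Fitness is defined as the logarithm of a genotype's enrichment relative to wild-type enrichment, using inverse-variance-weighted averages across replicates, with the logarithm taken to base 2.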

| Variant | polymerase ribozyme fitness (log ratio) |
| --- | --- |
| U7G C10A A52C C76G C93A A138G U139A U148G | ≤ -4.2 |
| U7G C10A U53A U139A G141A | ≤ -4.2 |
| U7G C10G C35A G48A | ≤ -4.2 |
| U7G C10U C36G G70C A122U C149G | ≤ -4.2 |
| U7G C14A C35A U56A A91G A97G A115G A138G | ≤ -4.2 |
| U7G C14G A28C G42A | ≤ -4.2 |
| U7G C14U A52G U56C C76A G80C C105G C108G A122G G128A | ≤ -4.2 |
| U7G C18U A24U C35A A97U C114G U148A | ≤ -4.2 |
| U7G C27A C93U A107G A150U | ≤ -4.2 |
| U7G C27U A41U G58A G80A C96A G126C A138U | ≤ -4.2 |
| U7G C35A U55A A60C C87U G117U G128A | ≤ -4.2 |
| U7G C36A | ≤ -4.2 |
| U7G C38A G83A G84U U148C | ≤ -4.2 |
| U7G C43U C93U U101G G143C A150C | ≤ -4.2 |
| U7G C54G G81C U111G C132G U135G G136A | ≤ -4.2 |
| U7G C54U G92U | -2.21 |
| U7G C57U C76U C85A C96G U104G C105G G141C | ≤ -4.2 |
| U7G C57U C85G G86U | ≤ -4.2 |
| U7G C75A C85G C95A | ≤ -4.2 |
| U7G C75G G84A G141A | ≤ -4.2 |
| U7G C75U G88U A115U A120C U134A | ≤ -4.2 |

| Variant | polymerase ribozyme fitness (log ratio) |
| --- | --- |
| U7G C76G C103A | ≤ -4.2 |
| U7G C85G A107G | ≤ -4.2 |
| U7G C87A A113U | ≤ -4.2 |
| U7G G11A U56A G81A C87G | ≤ -4.2 |
| U7G G25A A41C U45A G50C C85G G136U | ≤ -4.2 |
| U7G G25C U45A C51U C85A U134C U145C | ≤ -4.2 |
| U7G G25U U31G C35U G42A C57G C76U C79A G117A A147C | ≤ -4.2 |
| U7G G34U A60U C93U A107U | ≤ -4.2 |
| U7G G42C U61A C96U G112C G124C G126C G136A | ≤ -4.2 |
| U7G G46C G86U A91G U139A | ≤ -4.2 |
| U7G G46C U61A C63U U82A A122G | ≤ -4.2 |
| U7G G50A C76G G81U C87A G112A G141U | ≤ -4.2 |
| U7G G50C C87G C125U G133A G140A A142U | ≤ -4.2 |
| U7G G58A C63G C85U C129G | ≤ -4.2 |
| U7G G58U G59A C95U G140U | ≤ -4.2 |
| U7G G67C G86U C105G C132G U145G | ≤ -4.2 |
| U7G G71U C76A C85U U90A C105U G117A | ≤ -4.2 |
| U7G G74A C103A | ≤ -4.2 |
| U7G G92U | -2.39 |
| U7G G94A C96U A98U C114U G140U | ≤ -4.2 |
| U7G U13G G83A C93U A107G | ≤ -4.2 |

| Variant | polymerase ribozyme fitness (log ratio) |
| --- | --- |
| U7G U15A A41U A66C G94U C99G G133U U148G | ≤ -4.2 |
| U7G U15A G59C G124C G136A | -3.25 |
| U7G U15G A21C A39G U45G G92U U127C | ≤ -4.2 |
| U7G U44G U55G C99A | ≤ -4.2 |
| U7G U53A A147G | ≤ -4.2 |
| U7G U53A U56A A91U | ≤ -4.2 |
| U7G U55A C85G A122G A138C | ≤ -4.2 |
| U7G U61G G94C A98C U109C G141A A142C U146C | ≤ -4.2 |
| U7G U82A G117U | -3.65 |
| U7G U82G A115U G117U | ≤ -4.2 |
| U7G U130A | -4.18 |
| C8A A12U C14U U56A C57U U82A G84A G92U A106C G143C | ≤ -4.2 |
| C8A A12U C35G G92U C103G | -3.99 |
| C8A A12U C54G C87G C129G | ≤ -4.2 |
| C8A A12U G81A C87U U146G | ≤ -4.2 |
| C8A A16G A29U A47U G71U C93A A106G G133U C149U | ≤ -4.2 |
| C8A A16G G50U G83C U135C G136C | ≤ -4.2 |
| C8A A17C A26U U44G G83A G152U | ≤ -4.2 |
| C8A A17G A30G A41U C51U G71C U145C | ≤ -4.2 |
| C8A A17G A73U U78G C87U | ≤ -4.2 |
| C8A A17G C36U G86C G133C | ≤ -4.2 |

| Variant | polymerase ribozyme fitness (log ratio) |
| --- | --- |
| C8A A17U G67U A73G U78A A107U | ≤ -4.2 |
| C8A A17U U55A G81C C87A A91U U144C U145C | ≤ -4.2 |
| C8A A19C A22C C63U U78A C108U | ≤ -4.2 |
| C8A A19G C57G G88A U146G | ≤ -4.2 |
| C8A A19U A22G C93A G133C | ≤ -4.2 |
| C8A A20G G42C A98U C108G A138U U144G | ≤ -4.2 |
| C8A A21C | -3.76 |
| C8A A21C A41G U77C G83C | ≤ -4.2 |
| C8A A21C A47C C57U C79G G94C G100C U104G A113U G143C A150U | ≤ -4.2 |
| C8A A21C A49G G59A C63G C85G C105G A147C | ≤ -4.2 |
| C8A A21C C32G G83A G92A G140C G152U | ≤ -4.2 |
| C8A A22C G25A C54G A60C C76G G80A G88U A89C | ≤ -4.2 |
| C8A A22C U44A G81A G94C C108A | ≤ -4.2 |
| C8A A22G A28G C93U A137U | ≤ -4.2 |
| C8A A22U G84A A91C | ≤ -4.2 |
| C8A A24C A29U C54G A89U C93A | ≤ -4.2 |
| C8A A24G A49G A73C U77G C85A G136A | ≤ -4.2 |
| C8A A24U G58A U77A G83U G141A | ≤ -4.2 |
| C8A A26C C27A C38G | ≤ -4.2 |
| C8A A26C C79G A89G G92A | ≤ -4.2 |
| C8A A26G G59U A89G C93G C95U C108U C132A | ≤ -4.2 |
